The record followed here is PubChem BioAssay AID488969 (Vanderbilt High Throughput Screening Facility, 2010).

Molecules are shown by their SMILES. The full ranking holds about 110,000 compounds; the median of “z-score” is about -0.1, and the highest 2% start at about 2. The list shows a part of the results. Calls of active or inactive are those of the source.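 The calls were made as follows: active = z-score in the third read window above 3 or below -3; inactive = the rest.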

The target of the assay is Metabotropic glutamate receptor 8 (Rattus norvegicus) (UniProt P70579). Kind of assay: rat mGluR8 modulators via GIRK flux, primary screen, cell-based, thallium flux, HTS (AID 488969). The conditions noted are these: HEK293 rat mGluR8, GIRK (G protein-gated inwardly rectifying potassium channel) thallium flux, FluoZin2; at 10 µM; stronger effect = higher value.
UniProt P70579, sequence (P70579 whole entry, looked up): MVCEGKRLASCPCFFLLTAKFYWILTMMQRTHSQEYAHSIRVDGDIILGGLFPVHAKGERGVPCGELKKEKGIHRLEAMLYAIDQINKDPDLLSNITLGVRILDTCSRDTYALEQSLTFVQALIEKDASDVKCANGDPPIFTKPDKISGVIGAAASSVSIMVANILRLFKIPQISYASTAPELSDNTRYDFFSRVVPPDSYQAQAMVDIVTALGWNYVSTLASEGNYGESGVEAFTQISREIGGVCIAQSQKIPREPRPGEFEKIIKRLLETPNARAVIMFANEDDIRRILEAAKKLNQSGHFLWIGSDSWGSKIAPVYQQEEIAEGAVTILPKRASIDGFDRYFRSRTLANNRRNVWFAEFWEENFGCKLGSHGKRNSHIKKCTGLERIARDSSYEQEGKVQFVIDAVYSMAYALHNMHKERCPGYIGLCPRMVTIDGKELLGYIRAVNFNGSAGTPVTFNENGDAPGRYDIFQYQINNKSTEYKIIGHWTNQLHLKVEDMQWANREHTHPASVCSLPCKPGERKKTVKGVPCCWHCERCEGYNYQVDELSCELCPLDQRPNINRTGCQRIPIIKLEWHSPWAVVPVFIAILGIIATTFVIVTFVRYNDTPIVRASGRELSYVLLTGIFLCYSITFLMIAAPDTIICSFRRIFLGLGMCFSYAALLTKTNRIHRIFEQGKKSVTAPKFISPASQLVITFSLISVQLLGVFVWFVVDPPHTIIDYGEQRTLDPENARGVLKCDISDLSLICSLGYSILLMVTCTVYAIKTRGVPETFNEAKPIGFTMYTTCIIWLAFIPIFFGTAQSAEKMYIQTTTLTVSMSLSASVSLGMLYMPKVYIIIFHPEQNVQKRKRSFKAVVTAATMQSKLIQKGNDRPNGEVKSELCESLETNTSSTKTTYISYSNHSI
The compound `CCC(=O)N1N=C2C3CCN(CC3)C2C1c1ccccc1` (configuration not stated) yielded a z-score of -0.189.

In the case of `CC(C)Oc1cccc(NC(=O)c2cccn(Cc3ccc4c(c3)OC(F)(F)O4)c2=O)c1`, the z-score was -0.139.

For `CCCCCn1c(N)c(C(=O)NCc2cccs2)c2nc3ccccc3nc21`, the z-score is -0.198.

In turn, `O=[N+]([O-])c1ccc(N2CCNCC2)c2ncccc12` yielded a z-score of -0.0341.

For the compound `Nc1c(C(=O)OC2CCCCC2)c2nc3ccccc3nc2n1CC1CCCO1` (configuration not stated), the z-score was active: -4.66.

`O=C(c1cccn2c(=O)c3cc(Br)ccc3nc12)N1CCC2(CC1)OCCO2` yielded a z-score of -0.331.

In turn, `Cc1ccc(-n2nc(C)cc2NC(=O)COc2cc(C)cc3oc(=O)c4c(c23)CCC4)cc1` came in with a z-score of -1.33.

`Nc1ccc(S(=O)(=O)N2CCCCC2c2cccnc2)cc1` (configuration not stated) had a z-score of -0.0891.

`C=CCN1C(=O)NC(=O)/C(=C/c2ccc(OC)c(CSc3ccccn3)c2)C1=O` had a z-score of -0.342.

`CC(C(=O)Nc1ccc(Br)cc1C(=O)c1ccccc1)N1CCOCC1` (configuration not stated) registered a z-score of -0.634.

Take `CCCCn1c(O)c(/C(CC)=N/N2CCCCC2c2cccnc2)c(=O)[nH]c1=S` (configuration not stated): the z-score is -0.36.

Turning to `CCOc1ccccc1N1C(=O)NC(=O)/C(=C/c2ccc3c4c(cccc24)CC3)C1=O`, the z-score is -0.192.

The compound `Cn1c(O)c(C=NC2C(=O)C3(C)CCC2C3(C)C)c(=O)n(C)c1=O` (configuration not stated) displayed a z-score of 0.302.

`Nc1ccccc1C(=O)OCC(=O)N1CCc2ccccc21` gave a z-score of -0.195.

Take `O=c1[nH]c(=O)n(Cc2ccco2)c(O)c1C=NCCN1CCOCC1`: the z-score was 1.02.

`Nc1c(C(=O)NCCc2ccccc2)c2nc3ccccc3nc2n1CCN1CCOCC1` had a z-score of -0.0841.

In turn, `CC1(C)CC(=O)C(C=NCCN2CCN(C(=O)Cc3ccc(Cl)cc3)CC2)=C(O)C1` gave a z-score of -0.133.

`CC(C)c1ccc(N2C(=O)NC(=O)/C(=C/c3cnc(-c4ccccc4)nc3)C2=O)cc1`: the z-score is -0.232.

`CCC(=Nc1cc(OC)ccc1OC)c1c(O)[nH]c(=O)[nH]c1=O` had a z-score of 0.229.

`NC(=O)CSP(=O)(c1ccccc1)c1ccccc1` registered a z-score of -0.255.

For the compound `CSc1ccc(C(=O)C(C)(C)N2CCOCC2)cc1`, the z-score is -0.262.

Regarding `CCC(=O)Nc1cc(C(=O)N2CCC3(CC2)OCCO3)ccc1S(=O)(=O)c1ccc(C)cc1`, the z-score came out at 0.0209.

With `Cc1ccc2nc(N3CCN(C)CC3)[nH]c2c1`, the z-score is -0.362.

Take `O=c1[nH]c(N2CCN(Cc3ccc4c(c3)OCO4)CC2)nc2c1CCC2`: the z-score worked out at 0.034.

Regarding `Fc1cccc(F)c1CN1CCN(Cc2c(F)cccc2F)CC1`, the z-score was -0.164.

Regarding `O=C(O)C1C2CCC(O2)C1C(=O)NC1CCCCC1` (configuration not stated), the z-score is 0.954.

Compound `CCCCC1(CN2CCCC2=O)C(=O)NC(=O)NC1=O` gave a z-score of -0.247.

`Cc1cccc(NP(=O)(Oc2ccccc2F)Oc2ccccc2F)c1` displayed a z-score of -0.239.

In turn, `CC(=O)Nc1ccccc1C(=O)OCC(=O)c1ccc2ccccc2c1` yielded a z-score of -0.0887.

`COc1cccc(OC)c1C(=O)Nc1nc(N)n(-c2ccccc2)n1` displayed a z-score of 0.163.

The compound `CCOC(=O)C(O)(c1ccc(N(C)C(=O)COc2ccccc2)cc1)C(F)(F)F` (configuration not stated) gave a z-score of -0.189.

In the case of `Cn1c(O)c(C(=N)COc2ccccc2)c(=O)n(C)c1=O`, the z-score was -0.0284.

`COc1ccc(C2C(C#N)=C(N)Oc3c2c(=O)oc2ccccc32)cc1Cn1cc([N+](=O)[O-])cn1` (configuration not stated) had a z-score of -0.874.

Consider `Cc1ccc(N2C(=O)/C(=C/c3ccc(CN(CCC#N)S(C)(=O)=O)o3)C(=O)NC2=S)cc1`, for which the z-score stood at 0.251.

Regarding `CCOC(=O)c1c(C)n(Cc2ccccc2)c2ccc(OCC(O)CN3C(=O)CNC3=O)cc12` (configuration not stated), the z-score was -0.657.

In turn, `O=c1[nH]c(=O)n(Cc2ccco2)c(O)c1C=NCc1ccc2c(c1)OCO2` returned a z-score of 0.136.

As to `O=C(N/N=C/c1c(O)n(CCC2=CCCCC2)c(=O)[nH]c1=O)c1ccccc1`, the z-score is -0.134.

`CCCCCCn1c(O)c(C=Nc2c(C)n(C)n(-c3ccccc3)c2=O)c(=O)[nH]c1=O`: the z-score was -0.785.

`CC(=NCC1CCCO1)c1c(O)n(-c2ccccc2)c(=O)[nH]c1=O` (configuration not stated) came in with a z-score of 0.0257.

`O=C1NC(c2cccnc2)Nc2sc3c(c21)CCCC3` (configuration not stated) displayed a z-score of -0.06.

Take `C=CCOc1ccc(CC2C(=O)N(C)C(=O)N(C)C2=O)cc1`: the z-score is -0.143.

The compound `CCOC(=O)c1cn2nc(OP(=S)(OCC)OCC)cc2nc1C` registered a z-score of -0.867.

The compound `C[C@H]1CCCC(=O)CCC/C=C/c2cc(O)cc(O)c2C(=O)O1` yielded a z-score of 0.3.

In turn, `COc1ccccc1/C=N/N=C(/N)N[N+](=O)[O-]` gave a z-score of 0.519.

As for `CN(C)C(Cc1ccccc1)C(=O)c1ccc(-c2ccccc2)cc1` (configuration not stated), the z-score turned out to be 0.0488.

In the case of `Cc1cccc(N2C(=O)/C(=C/N3CCN(C(=O)c4ccco4)CC3)C(=O)NC2=S)c1`, the z-score is -0.0877.

Turning to `CCCCCCN=C(CC)c1c(O)n(CCCC)c(=O)[nH]c1=O`, the z-score is -0.63.

Compound `OCCN(CC#CC(O)(c1ccccc1)C1CCCC1)CCO` (configuration not stated) showed a z-score of -0.0873.

In the case of `CN(CCc1ccccc1)Cc1ccccc1[N+](=O)[O-]`, the z-score is -0.0898.

In turn, `CCN1CCN(c2ccc([N+](=O)[O-])cc2C=C2C(=O)NC(=O)NC2=O)CC1` registered a z-score of -0.0685.

Consider `CCOC(=O)N(c1ccccc1)P1(=S)OCC(C)O1` (configuration not stated), for which the z-score was -0.181.

The compound `Cc1cc(S(=O)(=O)NCC(C)C)ccc1OCC(=O)N1CCN(Cc2ccccc2)CC1` returned a z-score of 0.897.

As for `CC1(C)CC(=O)C2=C(C1)NC(=O)C21C(C(=O)OC(C)(C)C)=C(N)Oc2ccc(Br)cc21` (configuration not stated), the z-score was -0.103.

`O=C1NC(=O)N(CCC2=CCCCC2)C(=O)/C1=C/c1ccc(O)cc1` gave a z-score of -0.103.

For `Cc1cccc(NC(=S)N2CC3CC(C2)c2cccc(=O)n2C3)c1C` (configuration not stated), the z-score is -0.188.

With `CCn1c(P(C)(=O)O)nc2ccccc21`, the z-score was -0.338.

With `CCOC(=O)/C(CCCN(CC)CC)=N\O`, the z-score was -0.203.

`COc1ccccc1CC1C(=O)C2CCN1CC2` (configuration not stated) had a z-score of 0.604.

For the compound `CCCC12CN3CC(CCC)(CN(C1)C3c1ccccn1)C2=O` (configuration not stated), the z-score amounted to 0.177.

Compound `O=c1[nH]c(CN2CCNCC2)nc2ccccc12` had a z-score of -0.132.

With `CCC1=C(C)C(N2CCOCC2)=NP(N2CCOCC2)(N2CCOCC2)=N1`, the z-score was 0.0677.

Take `CCOC(=O)C(O)(c1ccc(NC(=S)NC(=O)c2ccc(Cl)cc2Cl)cc1)C(F)(F)F` (configuration not stated): the z-score was 1.47.

`Cc1ccc(-n2c(C)cc(/C=C3/C(=O)NC(=O)N(C)C3=O)c2C)cc1` came in with a z-score of -1.31.

As to `COC(=O)C1=Nc2ccccc2/C1=C\c1c(O)n(-c2ccc(OC)cc2)c(=O)[nH]c1=O`, the z-score worked out at 0.00423.

Compound `Cc1nn(Cc2ccccc2)c(Cl)c1C(=O)OC(C)C(=O)Nc1ccc(F)cc1Cl` (configuration not stated) registered a z-score of 0.0724.

In the case of `CCOc1ccc(-n2c(O)c(C=NCCN3CCNCC3)c(=O)[nH]c2=O)cc1`, the z-score was 0.65.

For `Cc1nc2c(=O)n(C)c(=O)nc-2n(C)n1`, the z-score worked out at 0.166.

In turn, `Brc1ccc(CN2CCNCC2)s1` gave a z-score of 0.00892.

The compound `Cc1ccc(CN2CC3CC(C2)c2cccc(=O)n2C3)cc1` (configuration not stated) came in with a z-score of -0.0631.

For the compound `COc1ccc2c(c1)c(C(=O)O)c(C)n2C(C)C`, the z-score is -0.218.

As to `Cc1cc(NC(=O)COC(=O)c2c(C)nn(Cc3ccccc3)c2Cl)no1`, the z-score is -0.144.

Compound `OC(c1ccncc1)(c1ccc(F)cc1)c1ccc(F)cc1` came in with a z-score of -0.666.

As to `COCCCNC(=O)c1c(NC(=O)c2ccccc2)n(Cc2ccccc2)c2nc3ccccc3nc12`, the z-score is -0.0509.

The compound `COc1ccc(OC)c(N2C(=O)NC(=O)C3(Cc4cc(C)ccc4N(C)C3)C2=O)c1` (configuration not stated) showed a z-score of -0.426.

`O=C(c1ccc(CS(=O)(=O)c2ccccc2)o1)N1CCC2(CC1)OCCO2` showed a z-score of 0.175.

Take `Cc1ccc(N2C(=O)NC(=O)/C(=C\c3cnc(-c4ccccc4)nc3)C2=O)cc1`: the z-score was -0.41.

Turning to `O=c1c2ccccc2nc(-c2ccccc2)n1-c1cccnc1`, the z-score is -0.194.

`O=C(c1cc(C(=O)NCc2ccccc2)c(=O)n(Cc2ccccc2)c1)c1cc(Br)ccc1O` gave a z-score of 0.0905.

Take `C=CCN1C(=O)CSc2ccc(C(=O)N3CCC4(CC3)OCCO4)cc21`: the z-score was -0.28.

Compound `CCS(=O)(=O)N1CCCC(C(=O)N2CCC3(CC2)OCCO3)C1` (configuration not stated) registered a z-score of 0.0065.

Regarding `O=C1CCCN1c1ccc(S(=O)(=O)O)cc1` (tested in a mixture with another compound), the z-score is -0.0877.

The compound `CC(Cc1ccccc1Sc1ccc(O)cc1)N(C)C` (configuration not stated) yielded a z-score of 1.64.

Compound `COC(=O)c1cncn1C(C)c1ccccc1` (configuration not stated) showed a z-score of -0.22.

Turning to `CC(O)(CS(=O)(=O)c1ccccc1)C(=O)Nc1ccc(C(F)(F)F)cc1` (configuration not stated), the z-score was determined as 0.236.

On to `CCCC(=O)Nc1ccc(N2CCN(CC)CC2)c(Cl)c1`, for which the z-score was -0.142.

Take `CCOCCCn1c(N)c(C(=O)Nc2sc3c(c2C(=O)OC)CCCC3)c2nc3ccccc3nc21`: the z-score was -0.316.

`Cc1oc(-c2ccc(Cl)cc2)nc1CS(=O)CC(=O)N1CCC2(CC1)OCCO2` (configuration not stated) returned a z-score of -0.308.

As to `Cc1cc(C)c(NC2=NCCCS2)c(C)c1`, the z-score was 1.03.

Take `COc1ccc(S(=O)(=O)NC(CC(=O)N2CCC3(CC2)OCCO3)c2ccco2)cc1` (configuration not stated): the z-score is -0.0947.

As to `O=C1C(=O)c2ccccc2-c2ccccc21`, the z-score amounted to 0.416.

In turn, `Cn1c(CN2CCN(C(=O)COc3ccccc3)CC2)nc2cc([N+](=O)[O-])ccc21` came in with a z-score of -1.43.

The compound `CC(=NCc1cccnc1)c1c(O)n(-c2ccccc2C)c(=O)[nH]c1=O` came in with a z-score of 0.169.

Regarding `CC(=O)NC(=O)NC(C)Cc1ccccc1` (configuration not stated), the z-score is 0.0248.

Consider `CCCCC1C(=O)NC(=S)NC1=O`, for which the z-score was -0.152.

`CC(=NCc1cccnc1)c1c(O)n(C2CCCCC2)c(=O)[nH]c1=O` displayed a z-score of -0.0505.

Compound `C(#CCN1CCOCC1)COCC#Cc1ccccc1` returned a z-score of 0.199.

For `CCc1c(C)nc(N)nc1N1N=C1SC`, the z-score was found to be 0.21.

The compound `Cc1ccccc1OCCN=Cc1c(O)n(C)c(=O)n(C)c1=O` gave a z-score of -0.247.

Turning to `Cc1cc(C=C2C(=O)NC(=S)NC2=O)c(C)n1-c1ccc2c(c1)OCO2`, the z-score was -0.495.

The compound `Nc1ccc(C(=O)N/N=C2/CN3CCC2CC3)cc1` returned a z-score of 0.939.

`CC(=NCc1cccnc1)c1c(O)n(-c2ccccc2)c(=O)[nH]c1=O` showed a z-score of -0.0189.

Take `N#CCCn1cc(C(=O)Nc2ccccc2Br)c(-c2ccc3c(c2)OCCO3)n1`: the z-score was -0.369.

As to `CC(=NCCN1CCOCC1)c1c(O)n(Cc2ccccc2)c(=O)[nH]c1=O`, the z-score is -0.628.

Take `COc1cccc(NP(=O)(Oc2ccccc2)Oc2ccccc2)c1`: the z-score was -0.112.

`Cc1ccc(OCC(=O)N2CCN(CC3CC4C=CC3C4)CC2)cc1` (configuration not stated) came in with a z-score of -0.847.

Compound `CCc1ccc(N2C(=O)NC(=O)/C(=C\c3cccn3CCOc3ccc(C(C)C)cc3)C2=O)cc1` had a z-score of -0.195.

For the compound `O=C(c1cc(-c2ccncc2)nc2ccccc12)N1CCC2(CC1)OCCO2`, the z-score is -0.598.
